# Test results as given in publication PMC4336329 (PLoS ONE, 2015).
# Out of some 310,000 compounds screened, about 14,000 (4.5%) showed an effect of 50% or more. The effect is printed as a negative number. This is one part of the list.
# Biological target: human ether-à-go-go-related gene (hERG) potassium channel (human, UniProt Q12809)
# Assay: primary screen, population patch clamp on CHO cells stably expressing hERG
# 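Note: peak tail current of the secondary pulse compared with the same well before compound.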
# Chain of human ether-à-go-go-related gene (hERG) potassium channel (Q12809 whole entry, looked up): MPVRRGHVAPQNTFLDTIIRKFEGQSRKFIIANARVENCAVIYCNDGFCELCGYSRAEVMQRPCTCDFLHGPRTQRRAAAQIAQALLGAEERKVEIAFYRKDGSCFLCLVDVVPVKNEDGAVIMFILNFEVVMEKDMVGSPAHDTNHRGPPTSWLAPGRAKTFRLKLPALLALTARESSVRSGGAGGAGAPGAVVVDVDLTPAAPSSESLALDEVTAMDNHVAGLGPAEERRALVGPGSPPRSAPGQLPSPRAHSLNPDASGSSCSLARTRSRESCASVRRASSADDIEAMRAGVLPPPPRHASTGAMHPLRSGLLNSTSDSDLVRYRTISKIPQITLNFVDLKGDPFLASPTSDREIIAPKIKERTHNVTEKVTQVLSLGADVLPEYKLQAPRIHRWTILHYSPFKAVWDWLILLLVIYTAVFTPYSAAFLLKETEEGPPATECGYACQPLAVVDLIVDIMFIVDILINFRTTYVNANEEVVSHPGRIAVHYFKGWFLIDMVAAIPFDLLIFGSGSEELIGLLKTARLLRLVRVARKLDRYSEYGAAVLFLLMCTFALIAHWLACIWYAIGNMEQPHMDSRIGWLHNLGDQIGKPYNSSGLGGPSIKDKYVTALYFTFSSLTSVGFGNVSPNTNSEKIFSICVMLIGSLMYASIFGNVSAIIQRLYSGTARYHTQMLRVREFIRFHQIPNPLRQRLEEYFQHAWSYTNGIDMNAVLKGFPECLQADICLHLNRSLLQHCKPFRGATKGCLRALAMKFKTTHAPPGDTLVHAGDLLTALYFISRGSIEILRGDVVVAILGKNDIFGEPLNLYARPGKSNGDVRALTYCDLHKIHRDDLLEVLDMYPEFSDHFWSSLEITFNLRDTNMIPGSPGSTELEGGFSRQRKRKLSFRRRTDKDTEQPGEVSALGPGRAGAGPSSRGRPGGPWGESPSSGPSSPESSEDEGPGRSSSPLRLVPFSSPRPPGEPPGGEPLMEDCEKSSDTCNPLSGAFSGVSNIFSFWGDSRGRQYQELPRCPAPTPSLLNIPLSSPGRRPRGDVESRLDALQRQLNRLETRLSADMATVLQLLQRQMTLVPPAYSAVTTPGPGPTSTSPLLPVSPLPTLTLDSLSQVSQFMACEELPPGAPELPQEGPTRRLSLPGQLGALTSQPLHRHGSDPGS
row,SMILES,"hERG current change (%, negative = inhibition) at 10uM"
1,Cc1cc(SCC(=O)NC2CCCC2)nc2ccccc12,-6.05%
2,CCC(=O)N1CCc2cc(S(=O)(=O)NCCC(=O)N3CCN(Cc4ccccc4)CC3)ccc21,-15.9%
3,CCC(C(=O)OC)n1cnc2c(nnn2-c2cccc(Cl)c2)c1=O (stereo not drawn),-3.07%
4,COC(=O)c1cc(NC(=O)CSc2nnc(CN3CCOCC3)n2C)ccc1Cl,-9.74%
5,COC(=O)/C(=N/Nc1ccccc1OC)N1CCCc2ccccc21,-0.396%
6,CCCCNC(=O)COC(=O)c1ccc(N(C)C)cc1,34.8%
7,CC(=O)c1cccc(N=C2NC(=O)CS2)c1,14.6%
8,Nc1nc(CCl)nc(N(c2ccccc2)c2ccccc2)n1,4.48%
9,O=C(CN1C(=O)S/C(=C/c2ccc(N3CCOCC3)cc2)C1=O)N1CCOCC1,2.7%
10,Cc1ccc(/C=C2/SC(=O)N(CC(=O)N3CCOCC3)C2=O)s1,-3.89%
11,CCC(C)N1CNc2c(c(=O)[nH]c(=S)n2-c2cccc(C)c2)C1 (stereo not drawn),15.7%
12,COc1ccc(C2NC(=O)NC(O)(C(F)(F)F)C2C(=O)c2ccccc2)cc1OC (stereo not drawn),-15.9%
13,CN1CCC(N2CC3CC(C2)c2cccc(=O)n2C3)CC1 (stereo not drawn),-16.4%
14,Cc1cnc(NC(=O)CSc2nnc(C)s2)s1,15.6%
15,CC1(c2ccccc2)ON(c2ccccc2C(F)(F)F)C1=O (stereo not drawn),1.34%
16,CN(C)S(=O)(=O)N1CCC(CCCC2CCN(S(=O)(=O)N(C)C)CC2)CC1,4.14%
17,O=C(O)CCC(=O)c1cccc2ccccc12,6.18%
18,COc1cc2c(cc1NS(=O)(=O)N1CCCC1)oc1ccccc12,-10.7%
19,O=C(CSc1nnc2c(n1)[nH]c1ccccc12)Nc1cccc(S(=O)(=O)N2CCOCC2)c1,10.1%

row,SMILES,"hERG current change (%, negative = inhibition) at 10uM"
1,CCCc1cc(=O)oc2cc(C)cc(OC(C)C(=O)NCCN3CCOCC3)c12 (stereo not drawn),0.296%
2,Cc1cc(N2CCCC2)c(C)cc1C=O,-13.5%
3,Cc1ccc(Cl)c(NC(=O)COC(=O)c2nn(C)c(=O)c3ccccc23)c1Cl,0.332%
4,O=C(Oc1cccc2c(OC(=O)N3CCCC3)cccc12)N1CCCC1,-25.5%
5,O=C(O)Cc1cn(-c2ccccc2)nc1-c1ccccc1,6.79%
6,COc1ccc(Cl)cc1NC(=O)COC(=O)CCCN1C(=O)c2ccccc2C1=O,9.28%
7,CCC1=Nc2cc(C(=O)N3CCC4(CC3)OCCO4)ccc2Sc2ccc(Br)cc21,2.08%
8,COCCN1CCN(c2c3c(nc4cc(-c5cccc(F)c5)nn24)CCC3)CC1,-26.4%
9,O=C(Cc1ccc(Br)cc1)NC1CCCc2ccccc21 (stereo not drawn),4.6%
10,CCc1ccccc1Nc1ccc(C(=O)O)cc1N,21.1%
11,COc1ccc(S(=O)(=O)N(C)CC(=O)Nc2cccc(C(C)=O)c2)cc1Cl,-19%
12,CC(=O)c1ccc(NC(=O)COC(=O)CCC(=O)c2cccs2)cc1,-7.17%
13,COc1cccc(NC(=O)CCS(=O)(=O)c2ccc3c(c2)oc(=O)n3C)c1,12.3%
14,CC(=O)Nc1ccc(SCC(=O)Nc2cc(C(C)(C)C)nn2-c2ccccc2)cc1,8.45%
15,COCCn1c(-c2ccc(OC)cc2)cnc1SCC(=O)Nc1cccc2ccccc12,-21.8%
16,COc1cccc2cc(C(=O)Oc3ccc(NC(C)=O)cc3)c(=O)oc12,-4.07%
17,COc1cccc(Cn2c(N)c(C#N)c3nc4ccccc4nc32)c1OC,11.7%
18,Cc1nc2ccccn2c1C(=O)N/N=C/c1ccccc1,11.6%
19,Cc1cc(Cl)c(C)c(S(=O)(=O)N2CCN(CC(=O)N3CCOCC3)CC2)c1Cl,-64.8%

row,SMILES,"hERG current change (%, negative = inhibition) at 10uM"
1,Cc1cccc(C)c1NC(=O)CN1C(=O)COc2ccccc21,10.5%
2,O=C(Nc1ccc(N2CCCC2)cc1)c1ccc(Cl)cc1Cl,29.8%
3,CCN(CC(=O)Nc1ccc2c(c1)OCCO2)Cc1cc(=O)oc2cc(C)c(C)cc12,-29.3%
4,CN(C)Cc1c(O)ccc2occ(C(O)c3ccccc3)c12 (stereo not drawn),-2.08%
5,COC(=O)c1cc2n(n1)CCN(Cc1ccc(C)cc1)C2=O,1.46%
6,CCOc1ccc(-c2ccc(/C=C3/C(=N)N4C=CSC4=NC3=O)o2)c([N+](=O)[O-])c1,-0.868%
7,COc1ccc(CC(=O)N/N=C/c2cc(Br)cs2)cc1OC,12.4%
8,O=C(Nc1ccccc1N1CCCC1)c1cccc(S(=O)(=O)N2CCOCC2)c1,-2.41%
9,Cc1ccc2cc(C#N)c(SCC(=O)N3CCCC3)nc2c1,-9.99%
10,O=C(NNC(=S)Nc1ccc(Cl)cc1)c1ccccc1,17.7%
11,CC(C)CN(CC(C)C)c1nnc(NC(=O)Cn2c(=O)oc3ccccc32)s1,4.92%
12,CC1CCN(C(=O)COc2ncnc3ccccc23)CC1,28.2%
13,CC(C)[C@H](NC(=O)N1CCn2c1nc1ccccc12)C(=O)N[C@@H](C(=O)O)c1ccccc1,17.7%
14,O=C(Nc1ccc(N2CCOCC2)nc1N1CCOCC1)c1cccc(C(F)(F)F)c1,2.94%
15,Cc1cc(NC(=O)CSc2nc(=O)cc(N)n2-c2ccc(F)cc2)no1,23.3%
16,COCCCn1c(=O)c2ccccc2n(Cc2cc(C(=O)OC)ccc2OC)c1=O,-22.4%
17,CCOC(=O)Cn1nnnc1CN(Cc1ccc(OC)cc1)Cc1cc2cc(C)ccc2[nH]c1=O,4.04%
18,Nc1nc(N)c2c(n1)CCCC2,-3.49%
19,O=C(CCCc1nc2ccccc2s1)Nc1nccs1,7.1%
